Measured values taken from the RNAGym collection of RNA variant scans (doi:10.1073/pnas.2313332121).
Variants at the floor of the assay are shown more often than the library holds them.

B1: TPR 5TU (parent)
chain: GGAUCUUCUCGAUCUAACAAAAAAGACAAAUCUGCCACAAAGCUUGAGAGCAUCUUCGGAUGCAGAGGCGGCAGCCUUCGGUGGCGCGAUAGCGCCAACGUUCUCAACUAUGACACGCAAAACGCGUGCUCCGUUGAAUGGAGUUUAUCAUG

Variants of: B1
Experiment: polymerase ribozyme fitness, log enrichment relative to wild type (log ratio); higher = more active; in vitro selection for triplet polymerase activity
Method in brief: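 Both subunits of a heterodimeric triplet polymerase ribozyme were given their own mutant library, built by PCR and transcribed. Each library was annealed with a biotinylated primer, the partner subunit and triplets, incubated frozen at −7 °C, and its extended constructs gel-excised, captured on streptavidin beads and amplified by RT-PCR, all in one round done in triplicate. Fitness is the logarithm of genotype enrichment relative to wild-type enrichment, with replicates averaged by inverse-variance weighting. That logarithm is base 2, and Illumina-sequenced genotypes needed ≥10 input reads and ≥1 read per output.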

| Variant | polymerase ribozyme fitness (log ratio) |
| --- | --- |
| G34C U44G U61A G80A A91C G141A | ≤ -4.2 |
| G34C U55A U61A U139C | ≤ -4.2 |
| G34C U55G C69U U78A A91U C93U G141A | ≤ -4.2 |
| G34C U61A C93G A137G | ≤ -4.2 |
| G34C U61G A64G C93U C95G G112U | ≤ -4.2 |
| G34U A40G C69U G80U C99U A107G U139G G140U U148C | ≤ -4.2 |
| G34U A40G C72U C96G | ≤ -4.2 |
| G34U A40G U55G U56A U101A U102G G126A | ≤ -4.2 |
| G34U A41G G81A G84U C87A C93A A110G | ≤ -4.2 |
| G34U A41U G68C G83C C87G A97U A122U G124C U139G U151G | ≤ -4.2 |
| G34U A52C G62U A64G C79A U109G U144C U151C | ≤ -4.2 |
| G34U A60U A91G G94U A142C | ≤ -4.2 |
| G34U C35A C36U G50C G67U U82C A97U U101G | ≤ -4.2 |
| G34U C51A C93U | ≤ -4.2 |
| G34U C54U G71C C85A | ≤ -4.2 |
| G34U C57A G74C G86U G100A C118G | ≤ -4.2 |
| G34U G42A U56A G86A | ≤ -4.2 |
| G34U G58A G59A C85U U101G A150G | ≤ -4.2 |
| G34U G58U G100U | ≤ -4.2 |
| G34U G80C A107C A138G | ≤ -4.2 |
| G34U G92C U101C U144A | ≤ -4.2 |

| Variant | polymerase ribozyme fitness (log ratio) |
| --- | --- |
| G34U U53A C54G C57U C85G G100C U104A A119U C125A A138G | ≤ -4.2 |
| G34U U56A | -1.7 |
| G34U U56A A64C G70C A97U G100A | ≤ -4.2 |
| G34U U56A C75G U134G | ≤ -4.2 |
| C35A A39C G83A C114A G117A C123G G140U | ≤ -4.2 |
| C35A A39C U53A G58A G68A U90C C95A G133A | ≤ -4.2 |
| C35A A39G G141U | ≤ -4.2 |
| C35A A39U A97G | ≤ -4.2 |
| C35A A40G C51U G88A U90A C93A C116G G117C A120C G133C U145C | ≤ -4.2 |
| C35A A41U C79G U90G | ≤ -4.2 |
| C35A A47C G48C U56A G94C C96A G100A | ≤ -4.2 |
| C35A A49C U56C G71A C72U G92A A115C | -3.21 |
| C35A A52C C57U A91U A106U A113C | ≤ -4.2 |
| C35A A52C U53C | ≤ -4.2 |
| C35A A52C U77C A147C | ≤ -4.2 |
| C35A A66G C87U U127C | ≤ -4.2 |
| C35A A89G C95U | ≤ -4.2 |
| C35A C36U G94C C96U | ≤ -4.2 |
| C35A C54G C72A C75A G84C C114U G133U A138G | ≤ -4.2 |
| C35A C57U U82A C93A A98C C131G | ≤ -4.2 |
| C35A C69G G88C C93A C96U U109G A119C | ≤ -4.2 |

| Variant | polymerase ribozyme fitness (log ratio) |
| --- | --- |
| C35A C76A C93A U148C | ≤ -4.2 |
| C35A C85U C99U | ≤ -4.2 |
| C35A C95A A107G G143U | -3.95 |
| C35A C95G | -4.1 |
| C35A C96A A107U | ≤ -4.2 |
| C35A G46C C99G G133U | ≤ -4.2 |
| C35A G50C G65C | ≤ -4.2 |
| C35A G59A A89G C95G C114U G143A U144C | ≤ -4.2 |
| C35A G70A A89G G92A | ≤ -4.2 |
| C35A G70C A89U A91C G126A | ≤ -4.2 |
| C35A G70C C95U C99U C118G U146G U151A | ≤ -4.2 |
| C35A G74U A89C | ≤ -4.2 |
| C35A G80A U104G U144G | ≤ -4.2 |
| C35A G83C A107G C114G | ≤ -4.2 |
| C35A U45A A66C G70C | ≤ -4.2 |
| C35A U55A C108A U134A U145A | ≤ -4.2 |
| C35A U56A C76G U134A | ≤ -4.2 |
| C35A U56A G58C G74C | ≤ -4.2 |
| C35A U61A C103G U104C C116U | ≤ -4.2 |
| C35A U61A G84A U109G | ≤ -4.2 |
| C35A U101C | -3.87 |

| Variant | polymerase ribozyme fitness (log ratio) |
| --- | --- |
| C35G A40U G50C U77A G92C C116G | ≤ -4.2 |
| C35G A47C C69G U77G U82C C103G G128U U130G U151C | ≤ -4.2 |
| C35G A47C G67U C87G G128A | ≤ -4.2 |
| C35G A47C U139G | ≤ -4.2 |
| C35G A49G C85A G94C G100U C108A | ≤ -4.2 |
| C35G A52U U53A U56A C93G C96U C105G G152A | ≤ -4.2 |
| C35G A60G C75U C87A G92U A121G A150G | ≤ -4.2 |
| C35G A60U G86C G143U | ≤ -4.2 |
| C35G A66G C85U C108G A138G U146C | ≤ -4.2 |
| C35G A66G G74A G83C U134G | ≤ -4.2 |
| C35G A89U C93U C95U | ≤ -4.2 |
| C35G A97C A138C | ≤ -4.2 |
| C35G C43U A49C U82G G84C C96A | ≤ -4.2 |
| C35G C43U G81A A91G A115G C118G | ≤ -4.2 |
| C35G C51U C54U U56A A89G G94U C99U A137U | ≤ -4.2 |
| C35G C57U C85G U151A | ≤ -4.2 |
| C35G C85G U134A G136A | ≤ -4.2 |
| C35G G50A G58A A66C C75A C87U | ≤ -4.2 |
| C35G G62A G68A C69G G71C C72A A73G G74C A91C C114U C132U | ≤ -4.2 |
| C35G G62C G67C C85G C131A A147U | ≤ -4.2 |
| C35G G68C C125A | -4.18 |
